From the supplement of paper PMC11417369
The other results are listed elsewhere or left out.

Each sequence was assayed on PF3D7_0420300 AP2 domain 1 (GST-tagged) (assay: gcPBM binding intensity (ln(normalized median fluorescence intensity)); higher = stronger DNA binding).
How it was run: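 After 1 h on an Agilent 4 × 180k array of primer-extended double-stranded 36-bp intergenic genomic probes and negative controls, bound GST-tagged P. falciparum DNA-binding domains were detected with Alexa488 anti-GST antibody and scanned at 488 nm. The domains had been expressed in E. coli, and binding took place in 1× PBS with 1% milk, 0.2 mg/ml BSA, 0.5% salmon testes DNA and 0.03% Triton X-100. Binding intensity is the highest Masliner-normalised natural-log median intensity across replicate spots of either probe orientation.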

Sequence	gcPBM binding intensity (ln)
TTTTCATTCAATTATATTTATATATATATATATATA [GTGCAC_negctrl_site538]	9.11
TACATGTATAAATAAGCACACATGTGGATATGTACA [CACACA_site93]	9.55
CAAAATATTTTTATAACACACATATATATAATGTGC [CACACA_site4767]	9.28
AAATATATATATATATATATATATATATATATATAT [CACACA_negctrl_site677]	8.86
AAATGAATAAATAAGACACACACGAAAATAAGTAAA [CACACA_site71]	10.1
TTATAAAATTACTTGGTGCATTAGAATATTTCAATA	8.91
TGATCAGATAGACACACACACAAAAAAAAAAAAAAA [CACACA_site7805]	9.54
ATAAAATATAAAAATTGTACGATAATAATAGTAGGA [XGTACX_site8951]	9.54
AACACTTCTTATTTATGTACTTAATTCCCAACGGAA [XGTACX_site4818]	9.18
AATTACTACATAAATACATGCATAATTATATATATA [TGCATGCA_site783]	9.29
TATCTCTTCATATTGTGTACATATTTTTATTTATTG [XGTACX_site4038]	9.68
TTGTATTATATTGTATTATGTTTAAATGAAAAAAAA [CACACA_negctrl_site662]	8.91
TATTGTTACTTTATATGTACTAATTAAACATATACA [XGTACX_site6363]	9.19
AAATATTAGTAACACAGACACACAAAAAAAAAAAAA [CACACA_site2175]	9.5
AAAAATACCTTATATATACACACTATGTTTTTCTTT [CACACA_site1192]	9.56
AAAAAAAAAAAAAAAAGTACACAAATTTTAAAAATT [XGTACX_site3006]	9.23
TTTTCTAAATAAATAGTGCATTTATTATATATACAT [GTGCAC_site9766]	9.22
TGTTTATTTTTAAAAAGTACATATTTAAAAAACTTC [XGTACX_site271]	8.81
CAAAAGAAGGTAAACACACACACACGCATACAAAAA [CACACA_site7724]	10.1

Sequence	gcPBM binding intensity (ln)
ATAGAATAAAACTATACACACCTATATTTAAACATA [CACACA_site5106]	9.63
CAAAACCTTATATGTACACACATATACATCACCCTT [CACACA_site3170]	9.67
ATTTCTCTATCGTAATGTACATAAAAAATGAAAAAA [XGTACX_site1201]	8.87
TTGTATTCATAACAACGTACATATTTTGTAACTAAA [XGTACX_site4029]	9.02
TTTCAAACAAAAAGACGTACACTGAAGTTATCCGTC [XGTACX_site8824]	8.91
AAGGAAATATAATATACACACATAAGTGTACTTCTA [CACACA_site6079]	9.36
CAATCAAATAGACACACACACACCTAAACATAAAAG [CACACA_site7322]	10.1
TATTAATAAAAGCATTGTACAGTAATAAATAAATAA [XGTACX_site2924]	9.36
TATATATATAAACACACACACACCAAAGCGTAGCGC [CACACA_site7903]	10.2
AGCCATTAATTCTCTACACACCTTTATGTTATTTAG [CACACA_site3635]	9.71
ACCCACTTTTGAGGTGTGCACAATAAATTGGACATT	9.18
ATATATATTTAAACTACACACGCATATCTTAGAAAT [CACACA_site8348]	9.56
TAAGAGATATTTTATTAAATGTTTTATGAATCATGT [TGCATGCA_negctrl_site264]	8.86
AGGAAAAAAAAAATGACACACATATTTGAATTAAAA [CACACA_site1352]	9.49
GTACATACATAAAACACACACATATAGATTTATATA [CACACA_site6945]	9.77
AGTGTGTGTAATAAAGTGCATTAAAAATGACACGTA	9.76
ACTCATAAAAATAGATGTACTTTAATAATTTGATTT [XGTACX_site8763]	9.15
TCAAACGGTTAAATATGTACATATATATATATATAT [XGTACX_site2339]	9.2
AAAAAAAAAAGACACACACACATATAAATATAAATA [CACACA_site6899]	10.2

Sequence	gcPBM binding intensity (ln)
ATGTCTACAGTTTTTGCACACATATAAATAAAAAAA [CACACA_site3600]	9.22
ATTTTTTTTTTTTTTTTTTTTGAGAAGAACTTTTTC [CACACA_negctrl_site1019]	8.84
AAACATCATAAATATACACACATATTTATATTTATA [CACACA_site6437]	9.53
CCATAACTCATATGCACACATAAATATTACATATAT [CACACA_site3821]	9.38
TTTTAAAAAGAAAAAAATAACATACATATATATATA [CACACA_negctrl_site240]	9.07
TAACACATATATTGTTGTACATTCAAACTGAAAAAT [XGTACX_site5565]	9.28
TTTTTTTTATTAAAAAGTACTAAACAAATTATATAT [XGTACX_site121]	8.9
ATATATATATATATGTGTACATATGTATATATATCT [XGTACX_site2930]	9.31
AGATGGAGAAAGTTATGTACACATATATAAATATGT [XGTACX_site6150]	9.28
CCCATGTAATGAACATGTACATAATAATTTATAAAT [XGTACX_site8687]	9.12
TATATACATATGTGATGTACATTTTTTGTAATATAA [XGTACX_site6985]	9.13
ATTCATAATATTATAACACACGCTTATTACATAAAG [CACACA_site980]	9.28
CGCATGTATTTTGTGTGTACTAATTATAATCAACTT [XGTACX_site4709]	9.62
TTTTACATATACATGTGTACATAACAAAGAATGTTT [XGTACX_site2406]	9.11
TAATATTGTATTTATGTACACACATTTTTGGAATAT [CACACA_site8371]	9.47
TTTTTTAATAAATGGTGTACATATTTTTTTTATACT [XGTACX_site8584]	9.24
AGTGTATTAATTCTCACACACTAAGAAAAAAAAAAA [CACACA_site6007]	9.23
CTATTTTTTGTATAAACATGCATATAGTAGATATGG [TGCATGCA_site670]	9.01
TTTAATATTTTTTTTTGTACTTATTTGTAGAAATAT [XGTACX_site3046]	9.11
